Here are results for 99 compounds from paper PMC6919601, “Identification of Plasmodium dipeptidyl aminopeptidase allosteric inhibitors by high throughput screening” (PLoS ONE, 2019).

The whole screen tested about 110,000 compounds, of which about 230 (0.21%) showed an effect of 50% or more. The list shows a part of the results.
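Note: 30 min substrate incubation versus DMSO and 10 µM JCP410 controls.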

The target in the assay is DPAP1 (Plasmodium falciparum, UniProt Q8IIJ9). Description: primary screen, percent inhibition; read by cleavage of a fluorogenic dipeptide substrate; higher = more effect of the substance. Also on record: species or system P. falciparum D10 trophozoite lysates; single well.
Chain of DPAP1 (Q8IIJ9 whole entry, looked up): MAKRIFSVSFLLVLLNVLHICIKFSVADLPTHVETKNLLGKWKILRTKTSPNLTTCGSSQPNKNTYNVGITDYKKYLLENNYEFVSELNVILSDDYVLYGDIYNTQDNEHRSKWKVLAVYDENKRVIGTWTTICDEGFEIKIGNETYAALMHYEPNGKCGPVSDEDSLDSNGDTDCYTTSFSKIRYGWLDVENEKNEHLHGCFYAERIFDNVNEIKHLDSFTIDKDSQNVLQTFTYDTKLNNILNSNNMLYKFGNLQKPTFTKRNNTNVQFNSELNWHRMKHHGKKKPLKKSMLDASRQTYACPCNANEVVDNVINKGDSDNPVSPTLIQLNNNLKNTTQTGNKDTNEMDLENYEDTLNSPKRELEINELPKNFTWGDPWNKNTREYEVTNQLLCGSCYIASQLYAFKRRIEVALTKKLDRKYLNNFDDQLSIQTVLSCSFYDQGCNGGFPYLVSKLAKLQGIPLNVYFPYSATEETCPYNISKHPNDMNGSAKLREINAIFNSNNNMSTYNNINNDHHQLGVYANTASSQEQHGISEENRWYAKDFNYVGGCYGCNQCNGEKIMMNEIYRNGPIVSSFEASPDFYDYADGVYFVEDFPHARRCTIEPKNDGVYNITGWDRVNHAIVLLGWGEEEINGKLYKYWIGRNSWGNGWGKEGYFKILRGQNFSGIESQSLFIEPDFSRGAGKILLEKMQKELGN
For the compound `CC(c1ccccc1)n1cnc2c(oc3ccccc32)c1=O` (stereo not drawn), the “% Inhibition @ 10 uM” value is given as -4.18%.

Consider `CCN(CC)C(=O)C1CCCN(Cc2ccncc2)C1` (stereo not drawn), for which the “% Inhibition @ 10 uM” value is 0.472%.

In the case of `Cc1nc(N2CCC(C)CC2)c2c(C)c(C(=O)N(C)Cc3ccccc3)sc2n1`, the “% Inhibition @ 10 uM” value is given as -5.76%. To `COCCCNC(=O)c1oc2ccc3c(c2c1C)C=CC(C)(C)O3` belongs -2.88%; to `Cc1ccc(S(=O)(=O)N2CCC(C(=O)NCC3CCCO3)CC2)cc1` (stereo not drawn), -0.169%. To `CC(=O)c1ccc(NC(=O)C(CC(C)C)N2C(=O)c3ccccc3C2=O)cc1` (stereo not drawn) belongs 3.53%. To `CCN(CC)CCNC1=NCCn2c1cc1cc(OC)ccc12` belongs -2.99%; to `O=c1oc2cc(O)ccc2cc1-c1nc2ccccc2s1`, 5.37%. As to `COc1ccc(S(=O)(=O)N2CCC(c3nc4ccccc4s3)CC2)cc1`, the “% Inhibition @ 10 uM” value was -3.06%. To `CN(CCCNC(=O)Cn1nc(-c2ccccc2)ccc1=O)Cc1ccccc1` belongs 0.302%; to `COc1ccc(-c2c(C(C)=O)c(C)nc3sc4c(-n5nc(C)cc5C)ncnc4c23)cc1`, 2.95%. To `N#C/C(=C/c1ccc(-c2cc(Cl)ccc2Cl)o1)C(=O)O` belongs -7.01%. To `CC1=CC(C)(C)N(C(=O)CSc2nc3ccccc3s2)c2ccccc21` belongs 1.24%; to `CC(C)N(Cc1nc(-c2ccc(Cl)cc2)no1)C(=O)CCC1CCCC1`, -1.24%; to `Cc1ccsc1C1C(C#N)=C(N)OC2=C1C(=O)CC(c1ccccc1)C2` (stereo not drawn), 1.96%. As for `CCC(Cc1ccccc1)NC(=O)/C=C/c1ccccc1` (stereo not drawn), the “% Inhibition @ 10 uM” value is recorded as 1.54%. Regarding `CCCCN(C)C(=O)C1CCN(c2nnc(C)c3c(C)n(-c4ccccc4)nc23)CC1`, the “% Inhibition @ 10 uM” value is -1.23%. To `CCOc1ccc(/C=C/C(=O)c2c(O)cc(C)oc2=O)cc1` belongs -0.546%; to `CCC1CCCCN1C(=O)Cn1c(SCc2ccc(C)cc2)nc2cccnc21` (stereo not drawn), 0.95%; to `NC(=O)c1cc2nc(-c3ccco3)cc(C(F)(F)F)n2n1`, -9.52%. To `COc1ccc(NC(=O)c2ccc(C(=O)c3c(C)cc(C)cc3C)cc2)cc1` belongs -7.87%; to `O=C(c1ccccc1)c1ccc2nc(Cl)c3nncn3c2c1`, -1.59%; to `COc1ccc(C(CC(=O)Nc2cc(C)on2)NC(=O)C(F)(F)F)cc1` (stereo not drawn), -5.36%. To `Cc1cccc(C(=O)Nc2nnc(SCc3cc(=O)n4ccsc4n3)s2)c1` belongs 4.11%.

As for `CCC(=O)Nc1nc(-c2ccccc2)nc(SC)c1C(C)=O`, the “% Inhibition @ 10 uM” value is on record as -3.64%. To `COc1cc(CN2C(=O)c3c(C)nc4ccccc4c3C2=O)cc(OC)c1` belongs 0.505%. To `O=C(c1cc(S(=O)(=O)N2CCCC2)c[nH]1)N1CCC(Cc2ccccc2)CC1` belongs 8.41%. To `O=C(NCCN1CCCCCC1)C1CCC(CNS(=O)(=O)c2cccc3cccnc23)CC1` (stereo not drawn) belongs -6.07%.

As to `COCCNC(=O)c1cn(C2CCCC2)c(=O)c2c1c1ccccc1n2C`, the “% Inhibition @ 10 uM” value is on record as -1.58%. To `COc1ccc(C)cc1N(CC(=O)N1CCc2ccccc2C1)S(=O)(=O)c1ccc(C)cc1` belongs 7.64%; to `COC(=O)C1=CNC=C(C(=O)OC)C1c1ccc(Cl)c(Cl)c1`, 4.66%.

As for `COc1ccc(-c2cc(C)no2)cc1S(=O)(=O)NCCN(Cc1ccco1)C1CCCC1`, the “% Inhibition @ 10 uM” value was determined as 3.9%.

In the case of `Cc1ccc(NC(=O)Nc2ccccc2)cc1Cl`, the “% Inhibition @ 10 uM” value came out at 1.08%. To `N#Cc1c(NC(=O)c2ccc(Cl)cc2Cl)sc2c1CCCC2` belongs 22.5%; to `Cc1c(C(=O)O)cc(-c2ccccc2)n1C`, 1.94%; to `Fc1cccc(CCNCc2c[nH]c3ccccc23)c1`, -1.5%. To `O=S(=O)(Cc1ccccc1)N1CCC(c2nc3ccccc3s2)CC1` belongs 0.401%; to `CC(NC(=O)c1ccccc1NS(=O)(=O)c1ccc(F)cc1)c1ccccc1` (stereo not drawn), -0.473%; to `O=C(c1[nH]nc2c1CCCC2)n1ccnc1`, 0.738%.

As for `OCCN1CCN(Cc2cc(Br)cs2)CC1`, the “% Inhibition @ 10 uM” value is reported as -6.27%.

As for `COc1ccc(C(=O)Nc2ccc(Cc3ccncc3)cc2)cc1OC`, the “% Inhibition @ 10 uM” value is 1.94%. In the case of `COc1ccc(-c2ccc3c(N)c(C(=O)Nc4cccc(F)c4)sc3n2)cc1`, the “% Inhibition @ 10 uM” value is reported as -6.39%.

With `CCOc1ccc(C(=O)Nc2cc(C)on2)cc1`, the “% Inhibition @ 10 uM” value stood at 4.3%. To `CC1CCc2c(sc(NC(=O)CCC(=O)O)c2C(N)=O)C1` (stereo not drawn) belongs -2.09%; to `Cc1ccc(Cn2c(=O)[nH]c3ncccc3c2=O)cc1`, -3.44%. To `O=C1NC(=O)N(c2ccccc2)C(=O)/C1=C\Nc1ccc(C(=O)N2CCOCC2)cc1` belongs -4.76%; to `COc1cc(C(=O)NC(C)c2nc3ccccc3[nH]2)cc(OC)c1OC` (stereo not drawn), -2.74%; to `COc1ccc(S(=O)(=O)Nc2ccc(NC(C)=O)cc2)cc1C`, -1.55%. To `CC(=O)Nc1ccc(NC(=O)CNS(=O)(=O)c2ccc(F)cc2)cc1` belongs 1.15%; to `O=C(NCc1ccco1)c1cc2cc(Cl)cc(Cl)c2oc1=O`, 4.32%. For the compound `O=C1c2oc3ccc(F)cc3c(=O)c2C(c2ccc(O)cc2)N1CCCN1CCOCC1` (stereo not drawn), the “% Inhibition @ 10 uM” value is reported as -6.71%.

On to `O=c1oc(-c2ccccc2F)nc2c1cnn2-c1ccccc1`, for which the “% Inhibition @ 10 uM” value was 3.44%. To `O=C(Cn1nc(-c2ccccc2)nc1-c1ccccc1)Nc1ccc(Br)cc1` belongs -2.18%; to `CN1CCN(Cc2nc3c(c(=O)[nH]c(=O)n3C)n2Cc2c(F)cccc2Cl)CC1`, 5.09%. To `CC(CNC(=O)CCc1nc2cccnc2n1Cc1cccs1)c1ccccc1` (stereo not drawn) belongs 1.62%; to `CC1CCCC(NC(=O)Cn2nc(Cc3ccncc3)c3ccccc3c2=O)C1C` (stereo not drawn), -6.52%; to `COc1ccc(Oc2c(C(F)(F)F)oc3cc(OCC(=O)NC4CCCCC4)ccc3c2=O)cc1`, -7.45%. To `CCOC(=O)C1=C(CS(=O)(=O)c2ccc(F)c(C)c2)NC(=O)NC1c1ccc(O)c(O)c1` (stereo not drawn) belongs -0.644%. As to `Cc1ccc(C(=O)N2CCC(c3nc(-c4ccc(S(=O)(=O)N5CCCC5)cc4)no3)CC2)cc1`, the “% Inhibition @ 10 uM” value is given as -1.31%. For the compound `Cc1c(-c2nsc(NC(=O)c3cccc(F)c3)n2)nnn1-c1ccccc1C(F)(F)F`, the “% Inhibition @ 10 uM” value is -1.2%.

For `C=CCOc1ccccc1CN(CCN(C)C)Cc1ccccc1`, the “% Inhibition @ 10 uM” value is -5.49%. To `CCC1CCc2c(sc(NC(C)=O)c2C#N)C1` (stereo not drawn) belongs -5.48%. To `C1=CCC(CN2CCN(c3ncccn3)CC2)CC1` (stereo not drawn) belongs -5.65%.

`O=C(CN1C(=O)c2ccccc2S1(=O)=O)Nc1ccc(Cl)c(C(F)(F)F)c1`: the “% Inhibition @ 10 uM” value is reported as 6.24%. Consider `Cc1cc(=O)oc2cc3c(cc12)OCCO3`, for which the “% Inhibition @ 10 uM” value was found to be 2.59%. Take `COc1ccccc1-n1nnc(-c2nsc(NC(=O)c3cccc(F)c3)n2)c1C`: the “% Inhibition @ 10 uM” value came out at 0.411%. To `CCOCCCNC(=O)/C(C#N)=C/c1c(Oc2ccc(C)cc2)nc2c(C)cccn2c1=O` belongs -5.1%. To `COC(=O)C1=C(C)N(C)C(=O)NC1c1cc(F)ccc1F` (stereo not drawn) belongs -3.04%; to `CCN(CC)c1ccc(Nc2nc(-c3c(C)nc4ccccn34)cs2)cc1`, 3.65%. To `COc1ccc(C(=O)Cn2nnc3sc4c(c3c2=O)CCCC4)c(OC)c1` belongs -2.71%; to `O=C(CCN1C(=O)C2CCCCC2C1=O)N1CCc2ccccc2C1` (stereo not drawn), 6.22%. Turning to `CCN1CCN(C(=O)c2ccc(-c3nc(COc4ccc(C)cc4)c(C)o3)cc2)CC1`, the “% Inhibition @ 10 uM” value is listed as -4.78%. For the compound `N#CC1=C(N)Oc2c(c(O)nc3ccccc23)C1c1ccccc1Cl` (stereo not drawn), the “% Inhibition @ 10 uM” value is on record as 1.76%. To `CCCN1C(=O)c2[nH]nc(-c3cc(C)ccc3O)c2C1c1ccc(OCC)c(OC)c1` (stereo not drawn) belongs 0.558%; to `Cc1nc2ccccc2c2oc(C(=O)N3CCC(C)CC3)cc12`, -5.25%; to `Cc1cccc(N(CC(=O)Nc2ccc3c(c2)OCO3)S(=O)(=O)c2ccccc2)c1C`, -3.69%. To `CC1CCN(c2nc3c(c(=O)[nH]c(=O)n3C)n2Cc2ccccc2F)CC1` belongs 5.54%; to `CC(C)c1ccc(CNc2ccc(O)cc2)cc1`, -4.76%. To `NC(=O)c1ccc(-n2c(CCC(=O)O)ccc2-c2ccccc2)cc1` belongs 0.558%. Regarding `CN(C)CCCN1C(=O)CSC1c1ccc2c(c1)OCO2` (stereo not drawn), the “% Inhibition @ 10 uM” value is listed as -3.52%. Regarding `COc1ccccc1CN1COc2ccc3c(-c4ccccc4)cc(=O)oc3c2C1`, the “% Inhibition @ 10 uM” value came out at 2.65%. To `COc1cc(/C=C2/SC(NC(C)=O)=NC2=O)cc(Cl)c1OCc1ccc(C(=O)O)cc1` belongs 4.85%; to `Cc1cccc(NC(=O)NCc2ccccn2)c1`, 1.61%.

On to `CCOC(=O)N1CCN(Cc2nc3c(c(=O)[nH]c(=O)n3C)n2CC(C)C)CC1`, for which the “% Inhibition @ 10 uM” value is listed as -2.92%.

On to `Cc1cc(C(=O)NCCc2sccc2C)c2c(C)nn(-c3ccccc3)c2n1`, for which the “% Inhibition @ 10 uM” value was 2.12%.

On to `Cc1cc2cc(CNC(=S)NC3CCCCC3)ccc2[nH]1`, for which the “% Inhibition @ 10 uM” value amounted to 3.19%. To `CC(CCN(C)CCN(C)C)c1ccccc1` (stereo not drawn) belongs -2%.

As to `CCCCCCc1ccc(-c2ncc(N)cn2)cc1`, the “% Inhibition @ 10 uM” value is recorded as 0.634%. Take `CCCn1c2ccccc2c2cnn(CC(=O)NCC3CCN(Cc4ccccc4F)CC3)c(=O)c21`: the “% Inhibition @ 10 uM” value worked out at 5.05%.

Take `CCC(=O)NS(=O)(=O)c1cnccc1Sc1ccc(Cl)cc1`: the “% Inhibition @ 10 uM” value is -10.2%. To `COc1cccc(C(=O)Nc2cc(C)ccc2C)c1` belongs -5.82%; to `CC(C)C[C@H](NC(=O)c1ccc(N2CCN(C)CC2)cc1)C(=O)N[C@@H](CC1CCCN1C(=N)N)C(=O)O` (stereo partly drawn), -1.41%; to `C=C(C)C(C)(O)C#CCN(CC)CC` (stereo not drawn), -3.79%.

Regarding `C/C(=N\c1ccccc1)C1=C(O)CC(C)(C)CC1=O`, the “% Inhibition @ 10 uM” value amounted to 2.45%. To `COc1ccccc1N1C(=O)c2ccccc2NC1c1ccncc1` (stereo not drawn) belongs -1.95%. To `CC(C)(C)Nc1nc(Cl)nc(NC(C)(C)C)n1` belongs -2.51%. To `O=C(c1ccco1)N1CCN(C(=O)c2cc(-c3ccc(F)cc3)no2)CC1` belongs 1.92%. Regarding `Nc1ncc(Br)cc1S(=O)(=O)NCCC(=O)NC1CCCCCC1`, the “% Inhibition @ 10 uM” value is given as -4.09%. To `Cc1ccc(C(=O)N2CCN(c3cccc(Cl)c3)CC2)cc1` belongs 0.526%.
